Laboratory results as given in the supplement of paper PMC4967469.
The IC50 comes from the fitted curve, where viability falls to half of the control; a fit beyond the top or the lowest dose is shown as a bound at that dose. AUC sums up the same curve from the lowest dose to the 256-fold higher top dose: 1 means no effect, lower means more sensitive. For some of these results: Any top dose called inferred was calculated from the reported fits.

How the values were obtained:
Experiment in all cases: Viability of human cancer cell lines after 72 h of drug (GDSC screen)
JW-7-52-1 = compound: CCC(=O)N1CCN(c2ccc(-n3c(=O)ccc4cnc5ccc(-c6cnc7ccccc7c6)cc5c43)cc2C(F)(F)F)CC1 [JW-7-52-1]; settings: top dose 1.2 µM; top dose inferred
Description: (§1)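 Human cancer cell lines in 384-well plates, medium with 10% serum, drug for 72 h over a 256-fold dose range (nine 2-fold or five 4-fold steps up to the top dose). Adherent lines were fixed and stained with the nucleic acid dye Syto60, suspension lines read with resazurin; signal relative to control wells, capped at 0 and 100%. One two-parameter sigmoid per drug and line, fitted in a mixed model over all curves with the slope shared within a line.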

Z-LLNle-CHO = compound: CCCC[C@@H](C=O)NC(=O)[C@H](CC(C)C)NC(=O)[C@H](CC(C)C)NC(=O)OCc1ccccc1 [Z-LLNle-CHO]; settings: top dose 2.56 µM; top dose inferred
Description: as §1

ZG-10 = compound: CN(C)C/C=C/C(=O)Nc1ccc(C(=O)Nc2cccc(Nc3nccc(-c4cccnc4)n3)c2)cc1 [ZG-10]; settings: top dose 10 µM; top dose inferred
Description: as §1

Tubastatin A = compound: CN1CCc2c(c3ccccc3n2Cc2ccc(C(=O)NO)cc2)C1 [Tubastatin A]; settings: top dose 20 µM
Description: as §1

Rapamycin = compound: CO[C@H]1C[C@@H]2CC[C@@H](C)[C@@](O)(O2)C(=O)C(=O)N2CCCC[C@H]2C(=O)O[C@H]([C@H](C)C[C@@H]2CC[C@@H](O)[C@H](OC)C2)CC(=O)[C@H](C)/C=C(\C)[C@@H](O)[C@@H](OC)C(=O)[C@H](C)C[C@H](C)/C=C/C=C/C=C/1C [Rapamycin]; settings: top dose 0.1 µM; top dose inferred
Description: as §1

Temozolomide = compound: Cn1nnc2c(C(N)=O)ncn2c1=O [Temozolomide]; settings: top dose 30 µM
Description: as §1

CI-1040 = compound: O=C(NOCC1CC1)c1ccc(F)c(F)c1Nc1ccc(I)cc1Cl [CI-1040]; settings: top dose 10 µM; top dose inferred
Description: as §1

IPA-3 = compound: Oc1ccc2ccccc2c1SSc1c(O)ccc2ccccc12 [IPA-3]; settings: top dose 32 µM; top dose inferred
Description: as §1

XL-880 = compound: COc1cc2c(Oc3ccc(NC(=O)C4(C(=O)Nc5ccc(F)cc5)CC4)cc3F)ccnc2cc1OCCCN1CCOCC1 [XL-880]; settings: top dose 5.12 µM; top dose inferred
Description: as §1

| Cell Line | AUC (JW-7-52-1) | IC50 (JW-7-52-1) [nM] | AUC (Z-LLNle-CHO) | IC50 (Z-LLNle-CHO) [nM] | AUC (ZG-10) | IC50 (ZG-10) [nM] | AUC (Tubastatin A) | IC50 (Tubastatin A) [nM] | AUC (Rapamycin) | IC50 (Rapamycin) [nM] | AUC (Temozolomide) | IC50 (Temozolomide) [nM] | AUC (CI-1040) | IC50 (CI-1040) [nM] | AUC (IPA-3) | IC50 (IPA-3) [nM] | AUC (XL-880) | IC50 (XL-880) [nM] |
| --- | --- | --- | --- | --- | --- | --- | --- | --- | --- | --- | --- | --- | --- | --- | --- | --- | --- | --- |
| NB5 (neuroblastoma, adherent) | 0.542 | 97.7 | 0.862 | 2230 | 0.793 | 4640 | 0.987 | > 20000 | 0.917 | > 100 | 0.985 | > 30000 | 0.778 | 4100 | 0.837 | 21800 |  |  |
| NH-12 (neuroblastoma, adherent) | 0.942 | > 1200 | 0.983 | > 2560 | 0.885 | > 10000 | 0.838 | 16000 | 0.969 | > 100 |  |  | 0.774 | 4400 | 0.63 | 4770 | 0.591 | 586 |
| KM12 (large intestine, adherent) | 0.514 | 82.3 | 0.862 | 2500 | 0.939 | > 10000 | 0.935 | > 20000 | 0.963 | > 100 | 0.984 | > 30000 | 0.738 | 3190 | 0.971 | > 32000 |  |  |
| GAK (melanoma, adherent) | 0.4 | 40.4 | 0.786 | 1050 | 0.789 | 4200 |  |  | 0.889 | > 100 | 0.985 | > 30000 | 0.762 | 3400 | 0.97 | > 32000 | 0.764 | 1780 |
| D-336MG (glioma, adherent) | 0.729 | 413 | 0.878 | > 2560 | 0.682 | 2350 | 0.951 | > 20000 | 0.977 | > 100 | 0.977 | > 30000 | 0.869 | > 10000 |  |  | 0.569 | 522 |
| IST-SL2 (small cell lung carcinoma, suspension) | 0.49 | 70.5 | 0.77 | 965 | 0.907 | > 10000 | 0.988 | > 20000 | 0.695 | 21.9 | 0.979 | > 30000 | 0.904 | > 10000 | 0.726 | 8720 |  |  |
| D-247MG (glioma, adherent) | 0.879 | > 1200 | 0.953 | > 2560 | 0.772 | 5340 | 0.953 | > 20000 | 0.979 | > 100 | 0.977 | > 30000 | 0.859 | > 10000 |  |  | 0.449 | 221 |
| NEC8 (testis, adherent) | 0.804 | 496 | 0.982 | > 2560 | 0.988 | > 10000 | 0.839 | 10800 | 0.987 | > 100 |  |  | 0.835 | 5230 | 0.985 | > 32000 | 0.524 | 367 |
| BT-474 (breast, adherent) | 0.71 | 319 | 0.979 | > 2560 | 0.721 | 2880 | 0.934 | > 20000 | 0.918 | > 100 | 0.984 | > 30000 | 0.986 | > 10000 | 0.712 | 8600 |  |  |
| SW872 (soft tissue, adherent) | 0.246 | 15.2 | 0.736 | 698 | 0.939 | > 10000 | 0.965 | > 20000 | 0.165 | 0.683 | 0.987 | > 30000 |  |  | 0.736 | 8690 | 0.836 | 2940 |
| NB69 (neuroblastoma, adherent) | 0.694 | 244 | 0.834 | 1410 | 0.681 | 1880 | 0.953 | > 20000 | 0.916 | > 100 |  |  | 0.642 | 1460 | 0.674 | 5730 | 0.425 | 204 |
| NB6 (neuroblastoma, adherent) | 0.459 | 56.5 | 0.916 | > 2560 | 0.905 | > 10000 | 0.934 | > 20000 | 0.957 | > 100 |  |  | 0.962 | > 10000 | 0.673 | 6840 | 0.576 | 541 |
| Hs-445 (Hodgkin lymphoma, suspension) | 0.871 | 984 | 0.822 | 1360 | 0.778 | 3750 | 0.962 | > 20000 | 0.95 | > 100 | 0.972 | > 30000 |  |  | 0.687 | 6370 | 0.734 | 1400 |
| TK10 (kidney, adherent) | 0.429 | 46.1 | 0.737 | 890 | 0.73 | 3300 | 0.975 | > 20000 | 0.847 | 98.8 | 0.98 | > 30000 | 0.802 | 6160 | 0.861 | > 32000 |  |  |
| MSTO-211H (mesothelioma, adherent) | 0.893 | 1190 | 0.99 | > 2560 | 0.935 | > 10000 | 0.986 | > 20000 | 0.945 | > 100 |  |  | 0.847 | 6320 | 0.982 | > 32000 | 0.884 | 4620 |
| LB647-SCLC (small cell lung carcinoma, semi-adherent) | 0.578 | 126 | 0.73 | 792 | 0.727 | 3020 | 0.966 | > 20000 | 0.839 | 80.2 | 0.981 | > 30000 | 0.974 | > 10000 | 0.714 | 8740 |  |  |
